Results: PubChem BioAssay (NCATS)
Several values for one entry are separate records, joined by “and”; a condition that tells them apart may be missing. Identical values can stand only once. The inconclusive results got no clear call from the source; some entries with a clear call stand among them for comparison. A potency beside an inconclusive call is a rough fit, not a confirmed value. Activity calls are given as the source filed them. Calls come from the whole dose curve; as a rule, active = well fitted activation curve with a large enough effect; inconclusive = small, poorly fitted or top-dose-only effect; inactive = no such curve, though single readings can be large or run the other way.

biological target: Cellular tumor antigen p53 (Homo sapiens) (UniProt P04637); experiment: Primary qHTS for small molecule compounds that upregulate eGFP-tagged delta133p53alpha (in N-terminal) cells. (AID 2060322); conditions: NCI-H358 eGFP-delta133p53alpha fluorescence, 24 h; activation: active compounds read high; note: nearly all actives have a fitted effect of over 75% in size;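 for activation: series mostly up to about 56 µM; 0% = DMSO vehicle and 100% = reference activator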
How it was run: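 NCI-H358 cells pre-induced 24 h with 10 ng/ml doxycycline to express N-terminal eGFP-delta133p53alpha, then dosed 24 h at 37C without doxycycline; fixed, Hoechst-stained, GFP intensity by laser scanning cytometry, normalized to DMSO (0%) and 57.5 uM 5-azacytidine (100%).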
Potency is the fitted concentration of half-maximal effect; tags give direction and shape of the fitted curve.

Sequence of UniProt P04637 (P04637 whole entry, looked up): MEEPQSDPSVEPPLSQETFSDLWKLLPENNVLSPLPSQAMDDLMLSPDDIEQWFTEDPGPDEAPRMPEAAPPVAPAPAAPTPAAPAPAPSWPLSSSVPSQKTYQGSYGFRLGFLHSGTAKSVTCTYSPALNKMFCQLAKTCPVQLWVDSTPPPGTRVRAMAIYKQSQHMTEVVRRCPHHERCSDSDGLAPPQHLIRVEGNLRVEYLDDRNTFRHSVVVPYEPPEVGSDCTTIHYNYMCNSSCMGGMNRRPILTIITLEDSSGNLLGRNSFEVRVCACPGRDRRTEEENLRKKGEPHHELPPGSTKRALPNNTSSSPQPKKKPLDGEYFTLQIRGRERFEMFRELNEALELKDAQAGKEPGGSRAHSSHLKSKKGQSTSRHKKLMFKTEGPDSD

SMILES | Potency | activation
C[C@@H]1C[C@@H]2O[C@H]2/C=C\C=C\C(=O)Cc2c(Cl)c(O)cc(O)c2C(=O)O1 | active: 14.8 µM | –
Cc1ccc(-c2c(C(=O)CF)n(CCCO)c3ncnc(N)c23)cc1 | inconclusive: 37.9 µM [activator, single point] | –
CC(C)(Cc1ccccc1)NCC(O)c1ccc(O)c(NS(C)(=O)=O)c1 (stereo not drawn) | – | inactive: -0.955%
COc1ccc2[nH]c(S(=O)Cc3ncc(C)c(OC)c3C)nc2n1 (stereo not drawn) | – | inactive: 10.7% and inactive: 10%
Cc1nc(Nc2cnn(C3CCNCC3)c2)nc2c1N(C)C(=O)c1cc3ccccc3cc1N2C | inconclusive: 37.9 µM [activator, single point] | –
CCCC(N[C@@H](C)C(=O)N1[C@H](C(=O)O)C[C@@H]2CCCC[C@@H]21)C(=O)OCC (stereo partly drawn) | – | inactive: 2.39%
CCOP(=O)(Cc1ccc(C(=O)Nc2ccc(Br)cc2C#N)cc1)OCC | – | inactive: 2.33%
O=C1NC2CCCCN2C12CCN(CCCN1c3ccccc3CCc3ccc(Cl)cc31)CC2 (stereo not drawn) | active: 13.5 µM | –
O=C(c1ccc(Cl)c([N+](=O)[O-])c1)N1CCN(c2ccccc2F)CC1 | inconclusive: 37.9 µM [activator, single point] | –
NCc1ccc(Nc2ncc(F)c(Nc3ccccc3)n2)cc1 | inconclusive: 30.1 µM [activator, single point] | –
COc1cc(N2CCC(O)CC2)ccc1Nc1nc(Nc2ccccc2S(=O)(=O)C(C)C)c2[nH]cnc2n1 | inconclusive: 16.9 µM [activator, single point] | –
CN1c2ccccc2C(=O)N2CCC3c4ccccc4NC3C21 (stereo not drawn) | active: 1.66 µM | –
COc1cc2c(cc1-c1c(C)noc1C)ncc1[nH]c(=O)n(C(C)c3ccccn3)c12 (stereo not drawn) | inconclusive: 27.3 µM [activator, partial curve, poor fit] | –
COc1cc2c(cc1OC)CN(C(=O)/C=C/c1c(-c3ccccc3)n(C)c3ncccc13)CC2 | inconclusive: 37.9 µM [activator, single point] | –
O=S(=O)(NCc1cccc2ccccc12)c1cc(Cl)c(Oc2cccc(N3CCNCC3)c2)s1 | inconclusive: 21.3 µM [activator, single point] | –
C=CC1C(OC2OC(CO)C(O)C(O)C2O)OC=C2C(=O)N3C(C(=O)O)Cc4c([nH]c5ccccc45)C3CC21 (stereo not drawn) | inconclusive: 11.7 µM [activator, single point] | –
CCS(=O)(=O)N1CC(CC#N)(n2cc(-c3ncnc4[nH]ccc34)cn2)C1 | inconclusive: 37.9 µM [activator, single point] | –

SMILES | Potency | activation
CC[C@H](CO)Nc1nc(NCc2ccc(-c3ccccn3)cc2)c2ncn(C(C)C)c2n1 | active: 0.536 µM | –
Fc1ccc(-c2nc(C3CCNCC3)sc2-c2ccnc(NC3CC3)n2)cc1 | active: 26.9 µM | –
CC(C)c1ccc(NC(=O)C(c2ccccc2)N(C)C(=O)Cc2c[nH]c3ccccc23)cc1 (stereo not drawn) | inconclusive: 21.3 µM [activator, single point] | –
CC[C@@H](N)CNc1ccnc(-c2cc(-c3cnn(C)c3)ccc2O)n1 | active: 6.75 µM | –
O=C(NCc1ccc(Oc2ccccc2)cc1)c1nc(-c2cc(Br)c(O)c(Br)c2)no1 | inconclusive: 13.5 µM [activator, partial curve] | –
CC(C)Nc1cc(-c2c[nH]c(C(=O)N[C@H](CO)c3cccc(Cl)c3)c2)c(Cl)cn1 | inconclusive: 3.84 µM [activator, full curve, poor fit] | –
O=C(NC1CCC1)c1ccc(C#Cc2cccc(F)c2)nc1 | – | inactive: 21.4%
CO[C@H]1O[C@@H]2O[C@]3(C)CC[C@H]4[C@H](C)CC[C@@H]([C@H]1C)[C@@]24OO3 | – | inactive: 10.3%
COc1ccccc1-c1c[nH]c2ncc(-c3cncc(C(=O)N(C)C)c3)cc12 | active: 21.3 µM | –
CCC(C)/C=C(C)/C=C/C(=O)C1CCC(O)C(C)(O)C1=O (stereo not drawn) | – | inactive: 14.5%
CCC/C=C/c1cc2c(C=O)c(O)c(CC=C(C)C)cc2o1 | inconclusive: 19 µM [activator, single point] | –
CC(C)(C)c1ccc(C(=O)Nc2cn3cc(-n4ccnc4)ccc3n2)cc1 | – | inactive: 1.79%
COc1c(Nc2ncc(Cl)c(N[C@H]3[C@@H](C(N)=O)[C@@H]4C=C[C@H]3C4)n2)ccc2c1CC[C@@H](N1CCOCC1)CC2 | inconclusive: 26.9 µM [activator, single point] | –
C=CC(=O)Nc1ccc(CN2C(=O)N(c3cc(OC)cc(OC)c3)Cc3cnc(Nc4ccc(N5CCN(C)CC5)cc4)nc32)cc1 | active: 13.5 µM | –
CC1=C2C[C@@]3(C)C(CCC[C@@H]3C)C(O)C2OC1=O (stereo partly drawn) | – | inactive: -15.3%
c1cc(NC2CCNCC2)nc(-c2cnc3ccccn23)c1 | inconclusive: 23.9 µM [activator, single point] | –
